# According to the supplement of paper PMC8728848:
# This is one part of the list.
# B1: Pwp4 (Candida glabrata) (protein)
# chain: MGSSHHHHHHSSGLVPRGSHMASVGNPITVSNVCSFPKNWHRTAGFRALTARLGIGIQSDSYKELLNYPGTFQLTTQQSSTTKPNFQISGLVGNIYGLTIVPSYLLVELTGYFVPPVSGEYTFSLEGSDDAAIIFIANPSTFKCGHVEDWPTAYDNDVTVTESIHATRTIYMIEGVAYPIRIAYYNGLSLGKLQASFTDPEGVKRVDWNGYIWRYDSCDTCSYV
# Assays:
# Experiment in all cases: glycan array binding signal (z-score within array); higher = stronger binding
# Details in all cases: glycan notation: IUPAC condensed, linker removed
# Neu5Ac(a2-8)Neu5Ac = molecular target: Neu5Ac(a2-8)Neu5Ac
# Procedure, shortened: (§1)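 The binding signal is a Z-score computed within each array. Data were drawn from 3228 arrays in the Consortium for Functional Glycomics database, restricted to those with a known protein sequence. Scores were averaged over arrays of the same protein sequence at different concentrations or buffers, and over linkers, and negative values can be taken as non-binding.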
# [1] = molecular target: Neu5Ac(a2-8)Neu5Ac(a2-3)Gal(b1-3)GalNAc(b1-4)[Neu5Ac(a2-3)]Gal(b1-4)Glc
# Procedure, shortened: as §1
# [2] = molecular target: Neu5Ac(a2-8)Neu5Ac(a2-3)Gal(b1-3)GalNAc(b1-4)[Neu5Ac(a2-8)Neu5Ac(a2-3)]Gal(b1-4)Glc
# Procedure, shortened: as §1
# [3] = molecular target: Neu5Ac(a2-8)Neu5Ac(a2-3)Gal(b1-4)Glc
# Procedure, shortened: as §1
# [4] = molecular target: Neu5Ac(a2-8)Neu5Ac(a2-3)Gal(b1-4)GlcNAc
# Procedure, shortened: as §1
# [5] = molecular target: Neu5Ac(a2-8)Neu5Ac(a2-3)[Gal(b1-3)GalNAc(b1-4)]Gal(b1-4)Glc
# Procedure, shortened: as §1
# [6] = molecular target: Neu5Ac(a2-8)Neu5Ac(a2-3)[GalNAc(b1-4)]Gal(b1-4)Glc
# Procedure, shortened: as §1
# [7] = molecular target: Neu5Ac(a2-8)Neu5Ac(a2-8)Neu5Ac
# Procedure, shortened: as §1
# [8] = molecular target: Neu5Ac(a2-8)Neu5Ac(a2-8)Neu5Ac(a2-3)Gal(b1-4)Glc
# Procedure, shortened: as §1
# [9] = molecular target: Neu5Ac(a2-8)Neu5Ac(a2-8)Neu5Ac(a2-3)[Gal(b1-3)GalNAc(b1-4)]Gal(b1-4)Glc
# Procedure, shortened: as §1
# [10] = molecular target: Neu5Ac(a2-8)Neu5Ac(a2-8)Neu5Ac(a2-3)[GalNAc(b1-4)]Gal(b1-4)Glc
# Procedure, shortened: as §1
# [11] = molecular target: Neu5Ac(a2-8)Neu5Ac(a2-8)Neu5Ac(a2-8)Neu5Ac(a2-3)[GalNAc(b1-4)]Gal(b1-4)Glc
# Procedure, shortened: as §1
# [12] = molecular target: Neu5Ac(a2-8)Neu5Gc(a2-3)Gal(b1-4)GlcNAc
# Procedure, shortened: as §1
# [13] = molecular target: Neu5Ac(b2-6)Gal(b1-4)GlcNAc
# Procedure, shortened: as §1
# Neu5Ac(b2-6)GalNAc = molecular target: Neu5Ac(b2-6)GalNAc
# Procedure, shortened: as §1
# [14] = molecular target: Neu5Ac9Ac(a2-3)Gal(b1-3)GlcNAc
# Procedure, shortened: as §1
# [15] = molecular target: Neu5Ac9Ac(a2-3)Gal(b1-4)GlcNAc
# Procedure, shortened: as §1
# [16] = molecular target: Neu5Ac9Ac(a2-6)Gal(b1-4)GlcNAc
# Procedure, shortened: as §1
# [17] = molecular target: Neu5Gc(a2-3)Gal(b1-3)GlcNAc
# Procedure, shortened: as §1
# [18] = molecular target: Neu5Gc(a2-3)Gal(b1-3)[Fuc(a1-4)]GlcNAc
# Procedure, shortened: as §1
# Neu5Gc(a2-3)Gal(b1-4)Glc = molecular target: Neu5Gc(a2-3)Gal(b1-4)Glc
# Procedure, shortened: as §1
# [19] = molecular target: Neu5Gc(a2-3)Gal(b1-4)GlcNAc
# Procedure, shortened: as §1
# [20] = molecular target: Neu5Gc(a2-3)Gal(b1-4)GlcNAc(b1-3)Gal(b1-4)GlcNAc(b1-2)Man(a1-3)[Neu5Gc(a2-3)Gal(b1-4)GlcNAc(b1-3)Gal(b1-4)GlcNAc(b1-2)Man(a1-6)]Man(b1-4)GlcNAc(b1-4)GlcNAc
# Procedure, shortened: as §1
# [21] = molecular target: Neu5Gc(a2-3)Gal(b1-4)[Fuc(a1-3)]GlcNAc
# Procedure, shortened: as §1
# [22] = molecular target: Neu5Gc(a2-6)Gal(b1-4)GlcNAc
# Procedure, shortened: as §1
# Neu5Gc(a2-6)GalNAc = molecular target: Neu5Gc(a2-6)GalNAc
# Procedure, shortened: as §1
# [23] = molecular target: Neu5Gc(a2-8)Neu5Ac(a2-3)Gal(b1-4)GlcNAc
# Procedure, shortened: as §1
# [24] = molecular target: Neu5Gc(a2-8)Neu5Gc(a2-3)Gal(b1-4)GlcNAc
# Procedure, shortened: as §1
# [25] = molecular target: Neu5Gc(a2-8)Neu5Gc(a2-3)Gal(b1-4)GlcNAc(b1-3)Gal(b1-4)GlcNAc
# Procedure, shortened: as §1
# [26] = molecular target: Neu5Gc(a2-8)Neu5Gc(a2-6)Gal(b1-4)GlcNAc
# Procedure, shortened: as §1
# [27] = molecular target: Neu5Gc(b2-6)Gal(b1-4)GlcNAc
# Procedure, shortened: as §1
binder,measurement,setting,value
B1,glycan array binding signal (z-score),Neu5Ac(a2-8)Neu5Ac,0.954
same,glycan array binding signal (z-score),[1],-0.601
same,glycan array binding signal (z-score),[2],-0.209
same,glycan array binding signal (z-score),[3],-0.58
same,glycan array binding signal (z-score),[4],0.507
same,glycan array binding signal (z-score),[5],-0.578
same,glycan array binding signal (z-score),[6],0.452
same,glycan array binding signal (z-score),[7],-0.368
same,glycan array binding signal (z-score),[8],-0.348
same,glycan array binding signal (z-score),[9],-0.455
same,glycan array binding signal (z-score),[10],2.12
same,glycan array binding signal (z-score),[11],-0.578
same,glycan array binding signal (z-score),[12],-0.535
same,glycan array binding signal (z-score),[13],2.05
same,glycan array binding signal (z-score),Neu5Ac(b2-6)GalNAc,-0.747
same,glycan array binding signal (z-score),[14],-0.527
same,glycan array binding signal (z-score),[15],0.1
same,glycan array binding signal (z-score),[16],-0.46
same,glycan array binding signal (z-score),[17],-0.465
same,glycan array binding signal (z-score),[18],-0.184
same,glycan array binding signal (z-score),Neu5Gc(a2-3)Gal(b1-4)Glc,-0.403
same,glycan array binding signal (z-score),[19],0.991
same,glycan array binding signal (z-score),[20],0.793
same,glycan array binding signal (z-score),[21],2
same,glycan array binding signal (z-score),[22],-0.441
same,glycan array binding signal (z-score),Neu5Gc(a2-6)GalNAc,-0.587
same,glycan array binding signal (z-score),[23],-0.243
same,glycan array binding signal (z-score),[24],-0.39
same,glycan array binding signal (z-score),[25],1.68
same,glycan array binding signal (z-score),[26],1.07
same,glycan array binding signal (z-score),[27],-0.094
